The text below walks through data of ChEMBL document CHEMBL1201862, “PubChem BioAssay data set” (2004).

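Assay format: 96-well plates, 48-hour exposure. At the GI50, growth is halved.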 Active and inactive are the calls of the source. Cut-off read from the data, not from the text of the source: active = GI50 up to about 1.1 µM and inactive = higher.

The assay relates to NCI-H322M. Nature of the assay: inhibition of tumour cell growth, NCI panel, 48 h.
Consider `NC(=O)c1cc(N(CCO)CCO)c([N+](=O)[O-])cc1[N+](=O)[O-]`, for which the GI50 was inactive: > 100 µM. On to `Oc1cc(/C=C/c2ccccc2)nc2cc3c(cc12)OCO3`, for which the GI50 is inactive: 5.94 µM. For `[O-][N+](CCO)(CCO)c1ncnc2[nH]cnc12`, the GI50 was inactive: > 100 µM.

In the case of `CCN(CC)C(=S)N/N=C1\C(=O)Nc2ccccc21`, the GI50 is active: 0.897 µM.

As to `Nc1ccn(C2CCC(CO)O2)c(=O)n1` (stereo unspecified), the GI50 is inactive: > 100 µM. On to `Cc1cc(=O)oc2cc(OCc3nc4ccccc4c(=O)[nH]3)ccc12`, for which the GI50 is inactive: > 100 µM.

As for `CC(=O)Nc1ncc(Sc2ccccc2C(=O)O)s1`, the GI50 was inactive: > 100 µM.

For the compound `CCOC(=O)c1nnsc1NC(=O)NN`, the GI50 was inactive: > 100 µM.

`Oc1ccc(/N=N/c2ccc(Cl)cc2)cc1`: the GI50 is inactive: 19.1 µM.

As for `Cc1ccccc1NC(=O)/C(=N/NC(=O)CC#N)C1C(=O)N(c2ccccc2)N=C1N` (stereo unspecified), the GI50 is inactive: > 100 µM.

With `Nc1nc(Cl)c(Cl)c(NCC2(O)CCC2)n1`, the GI50 was inactive: > 100 µM. On to `C[C@@H]1C[C@@]2(O[C@@H]2C)C(=O)O[C@@H]2CCN3CC=C(COC(=O)[C@]1(C)O)[C@H]23`, for which the GI50 is inactive: > 100 µM. As for `Cc1ccc(NS(=O)(=O)c2cc(C(C)(C)C)ccc2OCCOCCOCCOc2ccc(C(C)(C)C)cc2S(=O)(=O)Nc2ccc(C)cc2)cc1`, the GI50 was inactive: > 100 µM.

Consider `C1=C[C@@H]2c3ccc4cnccc4c3NC[C@@H]2C1`, for which the GI50 was inactive: > 100 µM. `C=CCC1(OC(C)=O)C2OC(=O)C1(O)OCC2O` (stereo unspecified): the GI50 was inactive: > 100 µM. The result for `CCCCOC(=O)NC(Nc1ccc(S(=O)(=O)Nc2ccc(OC)nn2)cc1)(C(F)(F)F)C(F)(F)F` reads inactive: > 100 µM; that for `O=C1N2CCc3c([nH]c4ccccc34)C23CC2CCCC12S3` (stereo unspecified), inactive: > 50 µM. Regarding `CN1c2ccccc2S(=O)(=O)n2c(CCc3ccccc3)nnc21`, the GI50 is inactive: > 100 µM. Regarding `CN(C)CCn1c2c3ccccc3ccc2c2oc(=O)c3ccccc3c21`, the GI50 is inactive: 5.26 µM. The result for `CN(C)CCNC(=O)c1ccc(Cl)c2c(Nc3ccc(S(=O)(=O)N=C(N)N)cc3)c3ccccc3nc12` reads inactive: 4.71 µM; that for `O=C1N=NC(=O)N1c1cc(C(F)(F)F)cc(C(F)(F)F)c1`, inactive: 4.17 µM. Regarding `Cn1c(=O)c2nc(-c3ccc(Cl)cc3)oc2n(C)c1=O`, the GI50 is inactive: > 100 µM. Turning to `CC(=O)Oc1c(C)cc2c(c1C)C(C)CN2C(C)=O` (stereo unspecified), the GI50 is inactive: > 100 µM. Consider `CC1(C)[C@@H]2CC[C@@]1(C)[C@H](O)[C@@H]2SCc1ccccc1`, for which the GI50 was inactive: 18.2 µM.

`COc1cccc([C@H]2C/C(=N\NC(=O)C(=O)N[C@@H](C)c3ccccc3)c3ccccc3N2)c1`: the GI50 is active: 0.0942 µM. Take `Cc1cccc(NC(=O)/C(=N\NC(C)(C)C)C2NC(=S)NC2=O)c1C` (stereo unspecified): the GI50 is inactive: > 100 µM. For the compound `CC1=C/C(=N\O)C(C(O)(C(F)(F)F)C(F)(F)F)C(C)(C)C1` (stereo unspecified), the GI50 was inactive: > 10 µM. Regarding `CCC1=CCC(P(=O)(c2ccccc2)c2ccccc2)CC1C` (stereo unspecified), the GI50 is inactive: 62.1 µM. On to `Nc1nccc2c1ncn2C1C=C(CO)C(O)C1O` (stereo unspecified), for which the GI50 is inactive: 44.2 µM. For the compound `C[C@]12CC[C@H](O)C[C@@H]1CC[C@@H]1[C@@H]2CC[C@]2(C)[C@@H](c3cc(C(F)(F)F)[nH]n3)CC[C@@H]12`, the GI50 is inactive: 8.69 µM.

Turning to `CC(=O)OC1COC(Nc2ccc(C(C)=O)cc2)C(OC(C)=O)C1OC(C)=O` (stereo unspecified), the GI50 is inactive: > 100 µM.

Turning to `CC(C)/C=C1\CCC(CN2CCOCC2)C1=O` (stereo unspecified), the GI50 is inactive: 25 µM. The result for `COc1cc(/C=C2\NC(=O)C3Cc4c(OC)c(C)c(OC)c(OC)c4C2N3C)c(OC)c(C)c1OC` (stereo unspecified) reads inactive: > 100 µM; that for `CO[C@]12C[C@@H](CNC(=O)c3cc(Br)c[nH]3)O[C@H]1NC(=O)N2`, inactive: > 100 µM.

Consider `CCOC(=O)c1ccc(Nc2nc3ccccc3nc2C(=O)OCC)cc1`, for which the GI50 was inactive: > 100 µM. The result for `O=C1C=CC(=O)c2c1ccc1c3ccccc3n(Cc3ccccc3)c21` reads inactive: > 100 µM. Regarding `COc1cc(/C=N\O)cc(/C=N/O)c1O`, the GI50 was inactive: 50.7 µM. The result for `C/C(=N\NC(N)=O)C(CN1CCCCC1)C(c1ccccc1)c1c(O)c2ccccc2oc1=O` (stereo unspecified) reads inactive: > 100 µM. As to `CC(Cl)CN1c2ccccc2Sc2ccc(Cl)cc21` (stereo unspecified), the GI50 is inactive: > 10 µM.

As for `Cc1cc(C)nc(NS(=O)(=O)c2ccc(NC(=O)c3ccc(Cl)c4c(Nc5ccc(S(=O)(=O)Nc6cc(C)on6)cc5)c5ccccc5nc34)cc2)n1`, the GI50 was inactive: 16.9 µM.

On to `NCCCN1c2ccccc2Sc2ccc(Cl)cc21`, for which the GI50 is inactive: 4.17 µM. On to `CCCNC(=O)Nc1ccc2c(c1)Cc1cc(N(CCCl)CCCl)ccc1-2`, for which the GI50 is inactive: > 100 µM. In the case of `COc1ccc2nc(NC(=O)/C(C#N)=C/c3ccccc3)sc2c1` it was inactive: > 78.2 µM. The result for `NCC(O)CNCC/C=C\C/C=C\C/C=C\C/C=C\C/C=C\C/C=C\CCCCC/C=C\CCNCC(O)CN` (stereo unspecified) reads inactive: 1.7 µM; that for `COC(=O)/C(C#N)=C(\Nc1ccccc1)N1CCCC1`, inactive: > 100 µM.

Take `CC(c1cccc2ccccc12)/[N+]([O-])=C/c1ccccc1` (stereo unspecified): the GI50 is inactive: > 100 µM. `O=C1c2ccccc2C(=O)C2C3c4ccccc4C(c4ccccc43)C12` (stereo unspecified): the GI50 was inactive: 58.9 µM. On to `CC(C)(C)[Si](C)(C)OCC1OC(n2cnc3c(N)ncnc32)CC1OS(C)(=O)=O` (stereo unspecified), for which the GI50 was inactive: > 100 µM. For the compound `Cc1cc(C)n(C(=C(C(Cl)=C(Cl)Cl)[N+](=O)[O-])n2nc(C)cc2C)n1`, the GI50 was inactive: 4.1 µM. For the compound `Cc1nc(C)c(N2CCNCC2)c(O)n1`, the GI50 is inactive: > 100 µM.

`Cc1cc(C)c2c(=O)n(CC(O)CN(Cc3ccccc3)CC(O)Cn3sc4nc(C)cc(C)c4c3=O)sc2n1` (stereo unspecified): the GI50 is inactive: 18.5 µM. For `O=C(CSc1nc2ccc(I)cc2c(=O)n1Cc1ccccc1)Nc1ccccc1`, the GI50 was inactive: 10.2 µM. For the compound `Nc1c(C(=O)c2ccc(Cl)cc2)[nH]c(Nc2ccc(Cl)cc2)c1C(=S)Nc1ccccc1`, the GI50 is inactive: 14.4 µM. For `CC(=O)Nc1nc2c(=O)c3ccccc3sc2s1`, the GI50 is inactive: > 100 µM. As to `C/C(=C\c1ccccc1)C(=O)NCc1ccc(C(=O)NCCc2c[nH]c3ccccc23)cc1`, the GI50 was inactive: > 100 µM.

As for `Cc1cccc2c1C(=O)OC2(C)c1cccc2ccccc12` (stereo unspecified), the GI50 is inactive: 44.2 µM. Turning to `CCOCCOc1ccc(OCCOCC)cc1`, the GI50 is inactive: > 59.7 µM. The result for `CC(C)(C)NC(=O)/C(=C\Sc1ccccc1)c1ccccc1` reads inactive: > 100 µM. Turning to `CN(C)c1ccc(/C=C/C(=O)O)cc1`, the GI50 is inactive: > 100 µM. Consider `NC(=O)c1nnn(-c2ccccc2)c1O`, for which the GI50 was inactive: > 100 µM. Consider `CN(C)c1ccc(/C=C/c2ccc(S(N)(=O)=O)cc2)cc1`, for which the GI50 is inactive: 17.3 µM.
